Measurements published in the RNAGym collection of RNA variant scans (doi:10.1073/pnas.2313332121).
This sample is rich in variants without activity.

B1: TPR 5TU (parent)
chain: GGAUCUUCUCGAUCUAACAAAAAAGACAAAUCUGCCACAAAGCUUGAGAGCAUCUUCGGAUGCAGAGGCGGCAGCCUUCGGUGGCGCGAUAGCGCCAACGUUCUCAACUAUGACACGCAAAACGCGUGCUCCGUUGAAUGGAGUUUAUCAUG

Variants of: B1
Assay: polymerase ribozyme fitness, log enrichment relative to wild type (log ratio); higher = more active; in vitro selection for triplet polymerase activity
Method in brief: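 The heterodimeric triplet polymerase ribozyme's subunits were each mutagenized into PCR-built libraries and transcribed. Every library was selected once, in triplicate, by annealing with a biotinylated primer, the partner subunit and triplets, incubating frozen at −7 °C, gel-excising extended constructs, capturing on streptavidin beads and running RT-PCR. Input and output libraries were Illumina-sequenced, with genotypes kept only at ≥10 input reads and ≥1 read per output. Fitness, from inverse-variance-weighted replicate averages, is the base-2 logarithm of genotype enrichment over wild-type enrichment.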

Point of comparison: G50A U55A, “polymerase ribozyme fitness (log ratio)” value -1.34. Against it:
- A49U A73U C131G U148C — lower, ≤ -4.2
- G50A G133C — lower, -3.28
- A49C U53A U56A G88C A113U A142C — lower, ≤ -4.2
- A49C C85A C93U G124U C125G U146G — lower, ≤ -4.2
- A49C C118A C149G — lower, ≤ -4.2
- G50A C57U A66C A106U C118U — lower, ≤ -4.2
- A49C U56A U61G U90A — lower, ≤ -4.2
- G48C U53C G136U — lower, -3.16
- A49C C57G A91U C108G A122G — lower, ≤ -4.2
- A49C C85A A106C — lower, ≤ -4.2
- A49G G50A G84A A97G — lower, -3.11
- A49C U82A G100A A107U A110C — lower, ≤ -4.2
- G50A U56G G71A U77C G94C — lower, ≤ -4.2
- A49C A110G A150G — lower, ≤ -4.2
- A49C C54A G74C C99G U135G — lower, ≤ -4.2
- A49G C85G U109G — lower, ≤ -4.2
- A49C G81U G94U — lower, ≤ -4.2
- A49C U56A — lower, ≤ -4.2
- G48U C87G U104G U135A — lower, ≤ -4.2
- G50A U56C G59U G68A U104G A110U G126U — lower, ≤ -4.2
- A49G U56A G83A G140U — lower, ≤ -4.2
- A49G C93G A120C — lower, ≤ -4.2
- G50A G80C C87A G100C G152A — lower, ≤ -4.2
- A49G A52C U56A A91G G92A A121G — lower, -3.9
- A49C C87A C125G — lower, ≤ -4.2
- A49C U82A — lower, ≤ -4.2
- A49U A60U C76G A115U C123A G128U — lower, ≤ -4.2
- A49C C108A A110G C118U — lower, ≤ -4.2
- G48U U77C C79G G143U — lower, ≤ -4.2
- A49C U56A C69A C99A — lower, ≤ -4.2
- A49C C51G G88U — lower, ≤ -4.2
- G48U G94A C95A C96G U134G — lower, ≤ -4.2
- A49C C123G — lower, ≤ -4.2
- A49G G65A G84U U104C C114U — lower, ≤ -4.2
- A49C C99G A142G — lower, ≤ -4.2
- A49C U90A G92A C103G G117U A138G — lower, ≤ -4.2
- A49C C51A A97U U109G C125G U135C A147G — lower, ≤ -4.2
- A49C G70A C96U U148G — lower, ≤ -4.2
- A49G U61A C85G — lower, ≤ -4.2
- G48U C99G U101G C108G G124U C125U — lower, ≤ -4.2
- A49C G83A C129G — lower, ≤ -4.2
- G50A U56A G86A — lower, -3.11
- A49C G68A G84U C114A A119U — lower, ≤ -4.2
- G50A C85G U109G G126C — lower, ≤ -4.2
- A49G G84A A115U G152U — lower, ≤ -4.2
- G50A C54G G71C A97G G117U G136U — lower, ≤ -4.2
- A49U C57A A110U C118U A138G — lower, ≤ -4.2
- A49C G62A G84U G126A — lower, ≤ -4.2
- A49C C75A C95U A115U C116U — lower, ≤ -4.2
- A49C A64C A97G G141A — lower, ≤ -4.2
- G50A U56A G80C C93A G94A U104G C129U — lower, ≤ -4.2
- A49C A110G G152C — lower, ≤ -4.2
- A49C G71A — lower, ≤ -4.2
- A49C G83C — lower, ≤ -4.2
- A49C G141U — lower, -3.13
- A49C U53A G59A G68U G88U U134G — lower, ≤ -4.2
- G48U A107C — lower, ≤ -4.2
- A49C C69U U77G C79A G84A C99A A113C C114G A142C — lower, ≤ -4.2
- A49U G58C C75G C118G G124A — lower, ≤ -4.2
- A49C C75A G84A — lower, ≤ -4.2
- A49G C69U — within 0.2 log units, -1.39
- A49C C76A C93G — lower, ≤ -4.2
- A49G C76U C96G A98G U127C C149U G152A — lower, ≤ -4.2
- A49C U56A G59A G74U A89G U139A — lower, ≤ -4.2
- G50A G92A C129A — lower, ≤ -4.2
- A49C A91G A107G C114U — lower, ≤ -4.2
- A49U U78A G83C G126U — lower, ≤ -4.2
- A49G G92U U111G — lower, ≤ -4.2
- A49C G65U G83U A89U C93A G133U U151C — lower, ≤ -4.2
- A49C C51A C57U G70A C85G U109G G126A U145A — lower, ≤ -4.2
- A49C C54G — lower, ≤ -4.2
- A49C A52G A73C — lower, ≤ -4.2
- G48U U78A C93A U139G — lower, ≤ -4.2
- A49C A138G — lower, ≤ -4.2
- A49C U55G A60U G65A G74C U77A — lower, ≤ -4.2
- G48C U77A C87G — lower, ≤ -4.2
- G50A C57G A60U G68U C87A U135G — lower, ≤ -4.2
- G50A G67A G74A C96G — lower, ≤ -4.2
- A49C C51U — lower, ≤ -4.2
- G50A A66G C75G A91C C125G A138C — lower, ≤ -4.2
- G50A A52C C75G U90G C93U A138C — lower, ≤ -4.2
- G48U C95U C103G C132A U148G — lower, ≤ -4.2
